Experimental data reported in publication PMC4336329 (PLoS ONE, 2015).
About 2,200 (0.71%) of roughly 310,000 compounds showed an effect of 50% or more. Effects have a minus sign here. The list shows a part of the results.

target: human ether-à-go-go-related gene (hERG) potassium channel (human, UniProt Q12809); experiment: primary screen, population patch clamp on CHO cells stably expressing hERG
Sequence (Q12809 whole entry, looked up): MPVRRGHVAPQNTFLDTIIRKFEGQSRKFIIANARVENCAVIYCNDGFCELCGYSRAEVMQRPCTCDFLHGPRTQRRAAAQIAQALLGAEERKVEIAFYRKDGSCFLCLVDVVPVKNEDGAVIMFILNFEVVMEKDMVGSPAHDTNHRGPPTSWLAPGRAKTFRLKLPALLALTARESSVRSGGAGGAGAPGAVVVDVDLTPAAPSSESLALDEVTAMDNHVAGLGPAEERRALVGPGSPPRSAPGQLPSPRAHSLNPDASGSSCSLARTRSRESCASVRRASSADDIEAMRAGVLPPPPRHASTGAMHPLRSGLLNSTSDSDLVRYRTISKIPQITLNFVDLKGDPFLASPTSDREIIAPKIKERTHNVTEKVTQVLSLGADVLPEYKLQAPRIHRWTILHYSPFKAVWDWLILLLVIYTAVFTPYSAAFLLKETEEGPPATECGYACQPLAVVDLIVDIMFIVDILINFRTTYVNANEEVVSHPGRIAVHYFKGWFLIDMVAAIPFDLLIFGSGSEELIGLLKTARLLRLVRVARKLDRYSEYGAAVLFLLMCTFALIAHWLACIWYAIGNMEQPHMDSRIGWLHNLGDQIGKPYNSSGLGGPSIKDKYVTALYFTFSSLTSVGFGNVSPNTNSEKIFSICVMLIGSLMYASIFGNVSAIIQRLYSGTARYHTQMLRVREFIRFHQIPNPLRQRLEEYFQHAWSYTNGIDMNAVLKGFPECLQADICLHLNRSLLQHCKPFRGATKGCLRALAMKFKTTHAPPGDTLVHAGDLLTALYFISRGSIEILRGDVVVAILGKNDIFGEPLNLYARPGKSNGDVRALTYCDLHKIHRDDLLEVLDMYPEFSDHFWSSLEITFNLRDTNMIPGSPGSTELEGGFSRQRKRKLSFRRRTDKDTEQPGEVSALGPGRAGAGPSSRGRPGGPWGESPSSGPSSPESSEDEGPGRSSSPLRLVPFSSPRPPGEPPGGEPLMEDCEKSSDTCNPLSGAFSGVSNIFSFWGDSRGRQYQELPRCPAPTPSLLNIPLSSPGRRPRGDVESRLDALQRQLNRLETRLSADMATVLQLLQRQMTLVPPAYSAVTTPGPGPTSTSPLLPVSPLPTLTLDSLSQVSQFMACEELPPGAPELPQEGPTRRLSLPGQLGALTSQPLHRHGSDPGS

SMILES | hERG current change (%, negative = inhibition) at 1uM
Cc1nnc(SCc2cc(=O)[nH]c(Nc3nc(C)c4cc(C)c(C)cc4n3)n2)s1 | 9.77%
CCOC(=O)c1c(NC(=O)CCN2C(=O)c3cccc([N+](=O)[O-])c3C2=O)sc(C(=O)OC(C)C)c1C | 10.2%
O=C(Nc1ccc([N+](=O)[O-])cc1)c1ccc(Cn2cc([N+](=O)[O-])cn2)cc1 | 9.06%
Cc1cc2c(c(N)n1)c(=O)oc1ccccc12 | 11.4%
COc1ccc(/C=C/C(=O)N(c2ccccn2)C2CCCCC2)cc1OC | 14.7%
Cc1ccc(CNC(=O)CSCC(=O)O)cc1 | 18.1%
COc1cc2[nH]c(Cl)c([N+](=O)[O-])c2cc1OC | 7.59%
N#Cc1cc(-c2ccccc2)nnc1Sc1ccc(F)cc1 | 17.6%
Cc1ccc(-c2nn(-c3ccc(F)cc3)cc2C(=O)N2CCN(C3CCS(=O)(=O)C3)CC2)cc1 (centres unmarked) | -24.2%
CCn1c(=O)c2ccccc2n(Cc2ccc([N+](=O)[O-])cc2)c1=O | -22.8%
CCC(C)NC(=O)c1ccccc1NC(=O)CN1C(=O)c2ccccc2S1(=O)=O (centres unmarked) | -8.07%
COc1ccc(N2CCN(C(=O)c3c(-c4ccccc4)noc3C)CC2)cc1 | 0.836%
CCc1cccc(NC(=O)CCCN2C(=O)C(c3ccccc3)Oc3cccnc32)c1 (centres unmarked) | 13%
O=C1C(=Cc2cccn2-c2ccccc2)C(=O)c2ccccc21 | 15.2%
COc1ccc(COCC(O)CN2CCCCC2)cc1OC.Cl (centres unmarked) | 12.7%
O=C(CNC(=O)c1cccc(N2C(=O)c3ccccc3C2=O)c1)Nc1ccc(F)c(F)c1 | 13%
O=C(Nc1ccc(/C=C/c2nc3ccccc3o2)cc1)c1cccc(C(F)(F)F)c1 | 3.58%
Fc1cccc(NC(=S)N2CCCCC2)c1 | 9.56%
COC(=O)c1ccc(COC(=O)c2ccc(-n3cnnn3)cc2)o1 | 3.73%
CC(=O)c1sc(NC(=O)c2ccc(F)cc2)nc1-c1ccccc1 | 5.22%
O=C(CN1CCOc2ccccc21)NCc1ccc(F)cc1 | -4.24%
CCCCn1c(O)c(/C(C)=N/NC(=O)Nc2ccccc2)c(=O)[nH]c1=O | 9.15%
CCOC(=O)CSc1n[nH]c(NC(=O)NC(C)C)n1 | 12%

SMILES | hERG current change (%, negative = inhibition) at 1uM
O=C(NC12CC3CC(CC(C3)C1)C2)N1CCN(S(=O)(=O)c2ccc(Cl)cc2)CC1 | 7.35%
O=C(N/C(=C\c1cccc([N+](=O)[O-])c1)C(=O)N1CCOCC1)c1cccc(Br)c1 | 7.37%
CC(=O)Oc1cc2oc(=O)c3c(c2cc1Cl)CCC3 | 11.1%
O=C(c1sc2ccccc2c1Cl)N1CCC2(CC1)OCCO2 | 6.63%
Oc1ccc(Nc2nc(-c3ccccc3)nc3ccccc23)cc1 | 4.13%
O=C(/C=C/c1ccc(F)cc1)NCCc1ccc2c(c1)OCCO2 | -1.76%
Cc1c(C(=O)N2CCN(S(=O)(=O)c3ccc(F)cc3)CC2)oc2ccccc12 | 4.19%
CN1CCN(c2ccccc2NC(=O)c2ccc(Br)o2)CC1 | -46.2%
COc1cc(/C=N\NC(=O)c2ccccc2F)ccc1Oc1ccc([N+](=O)[O-])cn1 | 1.66%
CCOc1ccc(/C=C2\SC(=S)N(CCC(=O)O)C2=O)cc1 | 8.54%
CN(C)S(=O)(=O)c1ccc(Cl)c(NC(=O)COC(=O)C2CCCO2)c1 (centres unmarked) | 12.3%
Br.COc1ccc(/C=N/N(C)C2=NCCN2)c(OC)c1OC | 12.2%
CCC(=O)Nc1cccc(NC(=O)CSc2nnc(C3CC3)n2C)c1 | 4.98%
Cc1nnc(SCc2c(Cl)cccc2Cl)s1 | 11.4%
COc1ccc(C(C(=O)NCC2CCCO2)N(C(=O)CNC(=O)c2ccco2)c2ccc(C)c(C)c2)cc1OC (centres unmarked) | 10.1%
O=C(COc1ccc(F)cc1)N1c2ccccc2CCc2ccccc21 | 26.4%
NC1=NC[C@H](c2ccccc2)N1CCCCC1CCCCC1 | 4.72%
COc1cc(OC)cc(-c2nnc(SCc3cccc(C(=O)O)c3)o2)c1 | 10%
COc1ccc(/C=C(\C#N)C(=O)NCc2ccccc2)cc1O | 1.53%
O=C(CCOc1ccccc1)Nc1ccnn1C1CCN(Cc2ccccc2)CC1 | 2%
O=C(Cn1cnc2ccccc2c1=O)NCCC(=O)Nc1ccc2c(c1)OCCO2 | 9.75%
Cc1ccc(OCC(=O)NCC(=O)n2nc(C)cc2C)cc1 | 8.5%
COc1ccc(Nc2c(-c3ccco3)nc3cccc(C)n23)cc1 | -0.306%

SMILES | hERG current change (%, negative = inhibition) at 1uM
O=C(NC1CCN(C(=S)NCc2ccco2)CC1)c1cccc(F)c1 | -1.23%
Cc1cc(-c2ccccc2)c2nncn2n1 | 18.5%
COC(=O)c1ccc(NC(=S)NNC(=O)CC(C)C)cc1 | 7.15%
O=C(Nc1cc(S(=O)(=O)N2CCOCC2)ccc1O)c1ccc2c(c1)S(=O)(=O)c1ccccc1C2=O | 20.6%
COC(=O)c1ccccc1OCC(=O)N1CCN(c2ccc(OC)cc2)CC1 | 12.2%
O=C(NCc1ccccc1)c1ccc(=O)[nH]n1 | 6.79%
Cc1ccc(N/C=C(/C#N)c2ccsc2)cc1C | 11.4%
CN(CC1COc2ccccc2O1)C(=O)c1cccc(S(=O)(=O)N2CCCC2)c1 (centres unmarked) | 2.35%
COc1ccc(NC(=O)CCCn2c(=O)c3sccc3n(Cc3ccc(C)cc3)c2=O)cc1 | -2.63%
CN(C)S(=O)(=O)n1ccnc1 | 5.54%
CN(C(=O)c1ccccc1C(=O)OCC(=O)Nc1ccc(S(N)(=O)=O)cc1)c1ccccc1 | 10.3%
Cc1ccc(S(=O)(=O)Nc2cccc(C(=O)NCc3cccnc3)c2)cc1F | 20.4%
Cc1ccc(CNC(=O)COC(=O)CCCOc2ccc(Cl)cc2Cl)cc1 | 19.4%
O=C(NNC(=O)c1cc(-c2ccccc2)nn1-c1ccccc1)c1ccccc1 | 1.49%
COc1cccc(C2C3(C#N)C(N)=NC(OC)(OC)C23C#N)c1 (centres unmarked) | 9.3%
CCOc1ccc(CCNC(=O)CN2C(=O)CCSc3ccccc32)cc1 | 3.31%
CCN(CC(=O)Nc1ccccc1C(F)(F)F)C(=O)CCc1c(C)[nH]c(=O)c(C#N)c1C | 4.71%
Oc1ccc(-c2[nH]ncc2-c2ccc(Br)cc2)c(O)c1 | 6.73%
N#Cc1ccccc1S(=O)(=O)N1CCN(S(=O)(=O)c2ccc(Br)c(C(=O)O)c2)CC1 | 12.2%
CN(C(=O)CCc1ccccc1)c1nnc(-c2ccncc2)s1 | 18.9%
O=C(Nc1ccccc1N1CCCCC1)C1CCN(S(=O)(=O)c2ccccc2C(F)(F)F)CC1 | 4.04%
CC(=NCC1CCNCC1)C1=C(O)CC(C)(C)CC1=O | 9.55%
O=C(O)c1ccc(NS(=O)(=O)c2ccc3nnn(O)c3c2)cc1 | -0.0934%

SMILES | hERG current change (%, negative = inhibition) at 1uM
O=C(CN1C(=O)CCS(=O)(=O)c2ccccc21)NCc1ccc2c(c1)OCO2 | 4.18%
Cl.O=C(Cc1ccccc1)OCCN1CCOCC1 | 18.4%
Cc1ccc(/C=C/S(=O)(=O)NCC(=O)OCC(=O)Nc2c(F)cccc2F)cc1 | 8.06%
Cc1cccc(OCCNc2cc(N3CCOCC3)ccc2[N+](=O)[O-])c1 | 2.66%
Cc1ccc(S(=O)(=O)NCc2ccc(C(=O)N(C)CCC#N)cc2)cc1 | -0.626%
CCCSCCCNC(=O)c1ccccc1NC(=O)C1=CSCCO1 | 9.35%
COc1cccc(CNCCc2cccc(F)c2)c1OC.O=C(O)C(=O)O | 10.7%
CCN1CCN(c2cc3c(cc2F)c(=O)c(C(=O)O)cn3C2CC2)CC1 | 12.7%
CCCCCSc1nc(C)c(CC(=O)O)c(=O)[nH]1 | 10.1%
Nc1c(NC=O)c(=O)n(Cc2ccccc2)c(=O)n1Cc1ccccc1 | 13.7%
COc1ccc(CN2CCC(CNC(=O)NC3CCCCC3)CC2)cc1 | -37.3%
CCCCNC(=O)c1ccc(CS(=O)(=O)c2ccccc2OC)o1 | 7.78%
Cc1ccc(C)c(OCCCNC2CCCC2)c1C.O=C(O)C(=O)O | 10.1%
COc1ccc(N(C(=O)c2ccco2)C(C(=O)NC2CCCCC2)c2cccs2)cc1OC (centres unmarked) | 11.1%
Cc1cc(OCCCn2ccnc2)ccc1C(C)C | 8.96%
CSc1nc(C)c2c(c1C#N)CCCC2 | 0.889%
CC(=O)c1c(C)[nH]c(C(=O)NCc2ccccn2)c1C | 12.5%
O=C(O)Cc1csc(-c2ccc(F)cc2)n1 | 16.6%
Cc1cccc(NC(=O)COC(=O)c2cccs2)c1C | 11.7%
COc1ccc([N+](=O)[O-])cc1NC(=O)Cc1ccc(Cl)cc1 | 12.8%
